Reference: PubChem BioAssay AID1347073 (National Center for Advancing Translational Sciences (NCATS), 2019)
The campaign covered roughly 45,000 compounds. About 200 (0.44%) were called active. About 7% were inconclusive and are not listed. Calls follow the shape of the dose curve; as a rule, active = well fitted activation curve with a large enough effect; inconclusive = small, poorly fitted or top-dose-only effect; inactive = no such curve, though single readings can be large or run the other way. The list shows a part of the results. Peptide text beside a SMILES is read from it. * marks the point of attachment. Boc = CC(C)(C)OC(=O)*; Bn = c1ccc(C*)cc1

Test: qHTS of TDP-43 Inhibitors: NCGC Sytravon Library Screen; also: 0% is about no effect; nearly all actives have a fitted effect of over 55% in size
Details: yeast TDP-43 toxicity rescue, BacTiter-Glo growth, 24 h; series mostly up to 46.1 µM; growth rescue (activation): at the top concentration
Method in brief: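 TDP-43-expressing yeast, pregrown in raffinose, seeded at OD600 0.02 in galactose medium with compound for 24 hr at 30 deg C. Growth read by BacTiter-Glo luminescence, so rescue of toxicity appears as activation.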

| SMILES | growth rescue (activation) |
| --- | --- |
| S=c1[nH]nc(-c2ccc(Br)cc2)n1Cc1ccccc1 | inactive: 19.5% |
| CN(C)c1ccc(CNC(=O)C2(C)Cc3c(-c4ccc(N(C)C)cc4)ccnc3O2)cc1 (stereo not given) | inactive: 3.91% |
| CC(C)CC(NC(=O)C(NC(=O)C(Cc1ccc(OCc2ccccc2)cc1)NC(=O)OC(C)(C)C)C(C)C)C(N)=O (stereo not drawn) (Boc-Tyr(Bn)-Val-Leu-NH2; configuration not given here) | inactive: 6.08% |
| CC(C)(C)c1ccc(C(=O)NCCC(=O)N2CCN(c3ncccn3)CC2)cc1 | inactive: 25% |
| COc1ccccc1/C=C/C=N/NC(=O)c1ccc(=O)n(C)c1 | inactive: 0.683% |
| Cc1cccc(C(=O)NCCCNC(=O)c2ccccn2)c1 | inactive: 10.2% |
| CCN(C(=O)COC(=O)c1ccc(Cl)c(S(=O)(=O)N2CCCCC2)c1)C1CCS(=O)(=O)C1 (stereo not given) | inactive: 9.97% |
| O=C(NCc1cccc(Cl)c1)c1ccc2nc[nH]c2c1 | inactive: 12.3% |
| COc1cccc(N2CCN(C(=O)C3CCN(S(=O)(=O)c4cccs4)CC3)CC2)c1 | inactive: 15% |
| Cc1ccc(O)c(NC(=O)c2noc3c2CCCCC3)c1 | inactive: 20.2% |
| COc1ccccc1C(=O)OCCCN=C1NS(=O)(=O)c2ccccc21 | inactive: 14.7% |
| CNc1cc(C(=O)Nc2cccc(OCc3ccccc3)c2)ncn1 | inactive: 7.96% |
| Cc1c(C(=O)O)cccc1-n1c(C)cc(/C=C(/C#N)C(=O)NCc2ccccc2)c1C | inactive: -12.2% |
| COc1ccc(OC)c(NC(=O)C2(C)CCN2CCOc2ccccc2)c1 (stereo not given) | inactive: 8.76% |
| CC(=O)c1sc(N/N=C2\CC3CC2C(C)C3(C)C)nc1C (stereo not given) | inactive: 15.6% |
| COc1ccc(C)cc1C(=O)C1CC(C(=O)O)C(C)(C)C1C (stereo not given) | inactive: 13.1% |
| COc1ccc(NC(=O)CSc2nc(O)cc(=O)n2-c2ccc(OC)cc2)cc1 | inactive: 0.201% |
| COc1cc2c(cc1OC)C(C)N(C(=O)[C@@H](NC(=O)c1ccccc1)C(C)C)CC2 (stereo not given in full) | inactive: -26.6% |
| COC(=O)c1c(NC(=O)C2CC(=O)NN2Cc2ccccc2)sc(C)c1C (stereo not given) | inactive: 9.69% |
| Cc1ccc(C)c(CN2C(=O)c3ccccc3S(=O)(=O)c3ccc(C(=O)N4CCCC4)cc32)c1 | inactive: 8.34% |
| COc1ccc(N2CCN(C(=O)C(NC(=O)c3c(F)cccc3F)C(C)C)CC2)cc1 (stereo not given) | inactive: 9.39% |
| COc1cc(OC)cc(C(=O)Nc2cc(C)nn2-c2ccccc2)c1 | inactive: 7.59% |

| SMILES | growth rescue (activation) |
| --- | --- |
| CCC(C(=O)NC1CCCC1)n1c2ccccc2c2nc(=O)cc(C)n21 (stereo not given) | inactive: -3.31% |
| Cc1[nH]c2ccccc2c1C(=O)COC(=O)c1ccccc1O | inactive: -0.542% |
| O=C(N/N=C/c1cc(Br)cc(Br)c1O)c1cccc(S(=O)(=O)N2CCOCC2)c1 | inactive: 14.1% |
| C/C(=N\NC(=S)Nc1ccc(C)cc1)c1cc2ccccc2o1 | inactive: 34% |
| O=C(NCCN1CCCCCC1)C1CCCN1S(=O)(=O)c1cccc2nsnc12 (stereo not given) | inactive: 39% |
| CC(C(=O)N1CCCCC1)n1ncn2cccc2c1=O (stereo not given) | inactive: 16.3% |
| O=C(NCc1ccco1)/C(=C\c1ccccc1)NC(=O)c1ccccc1 | inactive: 8.5% |
| O=C(NN1C(=O)c2ccccc2NC1c1ccc([N+](=O)[O-])o1)c1ccc([N+](=O)[O-])cc1 (stereo not given) | inactive: 7.65% |
| Cc1ccc(CSCCC(=O)NCCC2=CCCCC2)cc1 | inactive: -11.4% |
| O=C(COC(=O)c1ccccc1)NC1CCCC1 | inactive: 0.0791% |
| O=C(NCc1cccc(Br)c1)C1CCN(C(=O)c2sccc2-n2cccc2)CC1 | inactive: 13.1% |
| COc1ccc(C(=O)Nc2ccc(NC(=O)c3cccc(OC)c3)cn2)cc1 | inactive: 12.3% |
| CN1CCN(CC(=O)Nc2cc(N3CCOCC3)ccc2[N+](=O)[O-])CC1 | inactive: -2.92% |
| CC(C)S(=O)(=O)NC(=O)C1(C)CCN1C(=O)Cc1ccccc1 (stereo not given) | inactive: -0.819% |
| CCOc1ccc(N=C(NN)c2ccc3ccccc3n2)cc1 | inactive: -16.2% |
| COc1ccccc1N1CCN(C(=O)Cn2nc(C(F)(F)F)c3c2CCC3)CC1 | inactive: 6.05% |
| OCCCc1nc2ccccc2[nH]1 | inactive: 5.57% |
| CC(=O)Nc1ccc(-c2ccnc3c2CC(C(=O)Nc2ccc4c(c2)OCO4)O3)cc1 (stereo not given) | inactive: 10.9% |
| COc1ccc(NC(=O)C2(C)Cc3c(-c4cccc(NC(C)=O)c4)ccnc3O2)cn1 (stereo not given) | inactive: 5.35% |
| CCNC(=O)C/C(C)=N/NC(=O)C1CCCCC1 | inactive: 12.1% |
| COc1cccc(CCNC(=O)CC2C(=O)NCCN2CC(C)(C)C)c1 (stereo not given) | inactive: 4.93% |
| CCCN1Cc2cccc(C(=O)NC(CC(=O)OCC)c3ccc(OCC)c(OC)c3)c2C1=O (stereo not given) | inactive: -3.43% |

| SMILES | growth rescue (activation) |
| --- | --- |
| COc1ccc(C(=O)OCC(=O)NC2CCCCCC2)c(OC)c1 | inactive: 18.6% |
| CCN(CC)S(=O)(=O)c1cc(NC(=O)COC(=O)CCC(=O)c2cccs2)ccc1C | inactive: 7.88% |
| Nc1c(Cl)ncnc1N/N=C/c1ccncc1 | inactive: -4.83% |
| Cc1ccccc1-n1c(-c2ccncc2)n[nH]c1=S | inactive: 5.66% |
| CCCN(C(=O)C(NC(=O)c1ccccc1)C(C)C)c1c(N)n(Cc2ccccc2)c(=O)[nH]c1=O (stereo not given) | inactive: 33% |
| COc1cc(/C=N/Nc2ccccc2[N+](=O)[O-])ccc1OC(=O)c1ccccc1F | inactive: -0.65% |
| O=C(NC(c1ccc(Cl)cc1)c1cnccn1)C1CCN(CCOc2ccc(F)cc2)CC1 (stereo not given) | inactive: 4.61% |
| COC(=O)C(NS(=O)(=O)c1ccc(F)cc1)c1ccccc1 (stereo not given) | inactive: -12.9% |
| CC(C)NS(=O)(=O)c1ccc(CCC(=O)N2CCc3ccccc3C2)cc1 | inactive: 5.83% |
| Cc1ccc(C2=CSC3=NNC4(CCCCC4)NN23)cc1 | inactive: 20.3% |
| N#Cc1ccsc1NC(=O)COC(=O)c1ccc2ccccc2c1 | inactive: -1.15% |
| Cn1c(=O)[nH]c(=O)c2c1nc(N/N=C/C(Br)=C/c1ccccc1)n2CCO | inactive: 10.7% |
| CCn1c(SCC(=O)N/N=C(\C)c2ccncc2)nnc1-c1ccc(C)cc1 | inactive: 8.63% |
| COC(=O)c1ccc(NC(=O)N2CCc3c([nH]c4ccccc34)C2c2ccc(C)cc2)cc1 (stereo not given) | inactive: 11.1% |
| Cc1cccc(S(=O)(=O)NC(=O)C2(C)CCN2C(=O)c2c(C)noc2C)c1 (stereo not given) | inactive: 11.4% |
| COc1ccc(/C=C2\SC(=S)N(CCC(=O)Nc3cccc(O)c3)C2=O)cc1OC | inactive: 12.7% |
| O=C(CSc1ccc2nnc(-c3ccccc3)n2n1)N1CCCCC1 | inactive: -2.88% |
| O=C(CN1CCCCCCC1)Nc1cc(Cl)cc(Cl)c1 | inactive: 12.6% |
| COc1cc(N)c(Cl)cc1C(=O)OCC(=O)NCC1CCCCC1 | inactive: 23.4% |
| O=S(=O)(NCCCN1CCOCC1)c1ccc2ccccc2c1 | inactive: -5.75% |
| COc1ccc(CNC(=O)COC(=O)/C=C/c2ccc(S(=O)(=O)N3CCOCC3)cc2)cc1 | inactive: 0.168% |
